{
  "source": "PubChem BioAssay (Tox21)",
  "key": {"[1]": {"experiment": "qHTS assay to identify small molecule antagonists of the glucocorticoid receptor (GR) signaling pathway - cell viability counter screen (AID 720693); further: nearly all actives have a fitted effect of over 55% in size", "conditions": "GR-bla HeLa viability, CellTiter-Glo luminescence, 18 h, with 5 nM dexamethasone present; viability change, negative = cytotoxic: at 58.5 µM (top of the series)"}, "[2]": {"experiment": "qHTS assay for small molecule disruptors of the mitochondrial membrane potential (AID 720635); on ratio activity, negative = MMP loss: on the % scale 0 is the no-effect control and ±100 the full control effect", "conditions": "HepG2 mitochondrial membrane potential, Mito-MPS dye ratio; ratio activity, negative = MMP loss: at 83.2 µM (top of the series) unless noted", "procedure,_shortened": "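HepG2 cells (2,000/well) attached overnight at 37C, then took compound for 1 hr at 37C, 5% CO2. Mito-MPS dye was added for 30 min; fluorescence was read at 490/535 nm (monomers) and 540/590 nm (aggregates).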"}, "[3]": {"target": "Glucocorticoid receptor (Homo sapiens) (UniProt P04150)", "sequence (P04150 whole entry, looked up)": "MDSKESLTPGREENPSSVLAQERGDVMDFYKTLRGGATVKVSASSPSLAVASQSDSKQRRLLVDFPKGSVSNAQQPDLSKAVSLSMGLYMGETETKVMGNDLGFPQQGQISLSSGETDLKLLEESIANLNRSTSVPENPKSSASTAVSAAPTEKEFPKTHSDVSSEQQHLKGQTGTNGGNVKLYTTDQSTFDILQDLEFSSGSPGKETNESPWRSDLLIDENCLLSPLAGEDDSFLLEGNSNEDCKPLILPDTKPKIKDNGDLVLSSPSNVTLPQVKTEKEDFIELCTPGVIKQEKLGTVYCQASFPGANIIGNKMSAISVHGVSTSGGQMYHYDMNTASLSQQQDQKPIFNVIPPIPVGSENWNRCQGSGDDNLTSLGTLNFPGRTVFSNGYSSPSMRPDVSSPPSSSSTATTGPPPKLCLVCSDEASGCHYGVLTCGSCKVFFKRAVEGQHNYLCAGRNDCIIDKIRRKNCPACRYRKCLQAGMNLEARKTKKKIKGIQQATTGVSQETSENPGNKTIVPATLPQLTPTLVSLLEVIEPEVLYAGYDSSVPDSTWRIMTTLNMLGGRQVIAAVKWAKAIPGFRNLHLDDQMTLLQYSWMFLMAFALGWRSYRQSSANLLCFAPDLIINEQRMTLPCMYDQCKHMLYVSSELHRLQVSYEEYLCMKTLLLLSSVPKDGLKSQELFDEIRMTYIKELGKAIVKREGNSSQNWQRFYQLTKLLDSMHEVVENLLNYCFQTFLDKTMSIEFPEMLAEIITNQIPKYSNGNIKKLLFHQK", "experiment": "qHTS assay to identify small molecule antagonists of the glucocorticoid receptor (GR) signaling pathway (AID 720692; active means well fitted inhibition curve with a large enough effect in the signal ratio in the repeat runs, not every such curve was filed as active; inconclusive means weak or mixed curves, or effect the other way; inactive means no such curve, though single readings can be large or run the other way; the % refers to the signal ratio; on activity change, negative = inhibition: on the % scale 0 is the no-effect control and ±100 the full control effect)", "conditions": "GR-bla HeLa, beta-lactamase FRET ratio, dexamethasone-stimulated, 18 h; activity change, negative = inhibition: at 58.5 µM (top of the series) unless noted", "procedure,_shortened": "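GR-bla HeLa cells (beta-lactamase reporter under glucocorticoid response element) were pre-plated 4 h at 37 C, treated with compounds plus 5 nM dexamethasone (final) for 18 h, then read by LiveBLAzer B/G FRET fluorescence after 2 h.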"}, "[4]": {"target": "Glucocorticoid receptor (Homo sapiens) (UniProt P04150)", "experiment": "qHTS assay to identify small molecule agonists of the glucocorticoid receptor (GR) signaling pathway (AID 720691; active means well fitted activation curve with a large enough effect in the signal ratio in the repeat runs, not every such curve was filed as active; inconclusive means weak or mixed curves, or effect the other way; inactive means no such curve, though single readings can be large or run the other way; the % refers to the signal ratio; on activation: on the % scale 0 is the no-effect control and ±100 the full control effect)", "conditions": "GR-bla HeLa, beta-lactamase reporter ratio, 18 h; activation: at 62.4 µM (top of the series) unless noted", "procedure,_shortened": "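GR-bla HeLa cells (beta-lactamase reporter under glucocorticoid response element) were plated 4 h at 37 C/5% CO2, given compounds in DMSO, and incubated 18 h at 37 C. LiveBLAzer B/G FRET substrate was added for 2 h at room temperature, then fluorescence intensity read.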"}},
  "note": "Values joined by “and” are separate entries in the source; they are usually repeats but may differ in a detail not shown here. Identical values can stand only once. Inconclusive means that the source gave no clear call. Such entries were picked first, then a sample of the others. For some assays here: A potency beside an inconclusive call is a rough fit, not a confirmed value. Active and inactive are the calls of the source. Unless noted, the call rests on the fitted dose curve; in most records, active means well fitted curve in the direction sought with a large enough effect in the repeat runs; inconclusive means weak or mixed curves; inactive means no such curve, though single readings can be large; an effect the other way counts as inactive or inconclusive. Potency means the concentration at half of the fitted maximal effect; tags describe the fitted curve by direction and shape or compound fluorescence and quenching.",
  "data": [
    {"smiles": "O=c1cc(-c2ccccc2)oc2cc(O)cc(O)c12", "values": [
      {"measurement": "Potency", "setting": "[1]", "value": "inconclusive: 27.5 µM [cytotoxic, partial curve]"}
    ]},
    {"smiles": "Oc1ccc(C(c2ccc(O)cc2)C(Cl)(Cl)Cl)cc1", "values": [
      {"measurement": "Potency", "setting": "[1]", "value": "inconclusive: 61.4 µM [cytotoxic] and inconclusive: 61.6 µM [cytotoxic, single point]"}
    ]},
    {"smiles": "CCOC(=O)C(F)(F)F", "values": [
      {"measurement": "ratio activity, negative = MMP loss", "setting": "[2]", "value": "inconclusive: 28.4%"}
    ]},
    {"smiles": "NS(=O)(=O)c1cc(C(=O)O)cc(N2CCCC2)c1Oc1ccccc1", "values": [
      {"measurement": "ratio activity, negative = MMP loss", "setting": "[2]", "value": "inconclusive: -0.932% [at 39.1 µM]"}
    ]},
    {"smiles": "CCCCCCC(C)(C)C(=O)O", "values": [
      {"measurement": "Potency", "setting": "[2]", "value": "inactive"}
    ]},
    {"smiles": "CCC(=O)OC", "values": [
      {"measurement": "ratio activity, negative = MMP loss", "setting": "[2]", "value": "inconclusive: -5.1% [at 95.3 µM]"}
    ]},
    {"smiles": "CCOC(=O)NNc1ccc(N(CC)CC(C)O)nn1", "note": "(stereo not drawn)", "values": [
      {"measurement": "ratio activity, negative = MMP loss", "setting": "[2]", "value": "inconclusive: -53.8%"}
    ]},
    {"smiles": "CCOC(=O)c1ccccc1C", "values": [
      {"measurement": "Potency", "setting": "[2]", "value": "inconclusive: 13.7 µM [single point]"}
    ]},
    {"smiles": "CC1COc2ccccc2N1", "note": "(stereo not drawn)", "values": [
      {"measurement": "Potency", "setting": "[2]", "value": "inconclusive: 0.386 µM [activator, full curve]"}
    ]},
    {"smiles": "CCCCOc1ccc(OCCCN2CCOCC2)cc1", "values": [
      {"measurement": "Potency", "setting": "[2]", "value": "inconclusive: 2.85 µM [activator, full curve, poor fit]"}
    ]},
    {"smiles": "C=C[Si](OC(=C)C)(OC(=C)C)OC(=C)C", "values": [
      {"measurement": "ratio activity, negative = MMP loss", "setting": "[2]", "value": "inconclusive: -3.77%"}
    ]},
    {"smiles": "Nc1ccn([C@H]2CS[C@@H](CO)O2)c(=O)n1", "values": [
      {"measurement": "Potency", "setting": "[2]", "value": "inactive"}
    ]},
    {"smiles": "Cc1cn[nH]c1", "values": [
      {"measurement": "Potency", "setting": "[2]", "value": "inactive"}
    ]},
    {"smiles": "CN=C(N)NC(=O)Nc1c(C)cccc1C", "values": [
      {"measurement": "Potency", "setting": "[2]", "value": "inactive"}
    ]},
    {"smiles": "CCCCCCCCN", "values": [
      {"measurement": "Potency", "setting": "[2]", "value": "inactive"}
    ]},
    {"smiles": "COc1cc(OC)cc(OC)c1", "values": [
      {"measurement": "Potency", "setting": "[2]", "value": "inactive"}
    ]},
    {"smiles": "CCC1Nc2cc(Cl)c(S(N)(=O)=O)cc2S(=O)(=O)N1", "note": "(stereo not drawn)", "values": [
      {"measurement": "Potency", "setting": "[2]", "value": "inconclusive: 33.5 µM [inhibitor, single point]"}
    ]},
    {"smiles": "COC(=O)c1ccccc1", "values": [
      {"measurement": "Potency", "setting": "[2]", "value": "inconclusive: 67.9 µM [activator, partial curve, poor fit]"}
    ]},
    {"smiles": "CCC(C)OC(C)CC", "note": "(stereo not drawn)", "values": [
      {"measurement": "Potency", "setting": "[2]", "value": "inactive"}
    ]},
    {"smiles": "CCCCCCC(=O)c1ccccc1", "values": [
      {"measurement": "Potency", "setting": "[2]", "value": "inactive"}
    ]},
    {"smiles": "CC(=O)OCC[N+](C)(C)C", "values": [
      {"measurement": "Potency", "setting": "[2]", "value": "inactive"}
    ]},
    {"smiles": "O=c1[nH]ncc2ccccc12", "values": [
      {"measurement": "Potency", "setting": "[2]", "value": "inactive"}
    ]},
    {"smiles": "C[Si]1(C)O[Si](C)(C)O[Si](C)(C)O[Si](C)(C)O[Si](C)(C)O1", "values": [
      {"measurement": "Potency", "setting": "[2]", "value": "inactive"}
    ]},
    {"smiles": "CCCOC(=O)NCCCN(C)C", "values": [
      {"measurement": "Potency", "setting": "[2]", "value": "inactive"}
    ]},
    {"smiles": "CN(C)CCOc1ccccc1Cc1ccccc1", "values": [
      {"measurement": "Potency", "setting": "[2]", "value": "active: 2.66 µM"}
    ]},
    {"smiles": "COC(=O)/C=C/c1ccccc1", "values": [
      {"measurement": "Potency", "setting": "[2]", "value": "inconclusive: 61.1 µM [activator, partial curve]"}
    ]},
    {"smiles": "CCCc1ncc(C[n+]2ccccc2C)c(N)n1", "values": [
      {"measurement": "Potency", "setting": "[2]", "value": "inconclusive: 12.7 µM [inhibitor, partial curve]"}
    ]},
    {"smiles": "CC(=O)OCC(C)OC(C)=O", "note": "(stereo not drawn)", "values": [
      {"measurement": "ratio activity, negative = MMP loss", "setting": "[2]", "value": "inconclusive: 18.4%"}
    ]},
    {"smiles": "CCCCCCCC/C=C\\CCCCCCCCO", "values": [
      {"measurement": "Potency", "setting": "[2]", "value": "inactive"}
    ]},
    {"smiles": "O=C=NCC1CCCC(CN=C=O)C1", "note": "(stereo not drawn)", "values": [
      {"measurement": "Potency", "setting": "[2]", "value": "inconclusive: 0.611 µM [single point]"}
    ]},
    {"smiles": "C=C(C)C(=O)OCCOc1ccccc1", "values": [
      {"measurement": "Potency", "setting": "[2]", "value": "inconclusive: 54.5 µM [rising, partial curve, poor fit]"}
    ]},
    {"smiles": "Cc1c(F)c(N2CCNC(C)C2)cc2c1c(=O)c(C(=O)O)cn2C1CC1", "note": "(stereo not drawn)", "values": [
      {"measurement": "Potency", "setting": "[2]", "value": "inconclusive: 2.98 µM [activator, full curve, poor fit]"}
    ]},
    {"smiles": "COc1c(Cl)c(Cl)c(Cl)c(Cl)c1Cl", "values": [
      {"measurement": "Potency", "setting": "[2]", "value": "inconclusive: 68.9 µM and inconclusive: 61.1 µM"}
    ]},
    {"smiles": "O=S(=O)(Oc1ccc(Cl)cc1Cl)c1ccccc1", "values": [
      {"measurement": "Potency", "setting": "[2]", "value": "active: 27.8 µM and active: 61.1 µM"}
    ]},
    {"smiles": "CCc1cccc(C)c1", "values": [
      {"measurement": "ratio activity, negative = MMP loss", "setting": "[2]", "value": "inconclusive: 11% [at 95.3 µM]"}
    ]},
    {"smiles": "C=CC(C)(CCC=C(C)C)OC(=O)CC(C)C", "note": "(stereo not drawn)", "values": [
      {"measurement": "Potency", "setting": "[2]", "value": "inactive"}
    ]},
    {"smiles": "Cn1cnc2ncnc(N)c21", "values": [
      {"measurement": "ratio activity, negative = MMP loss", "setting": "[2]", "value": "inconclusive: -0.335%"}
    ]},
    {"smiles": "Cc1ccc2c(c1)C(=O)OC2=O", "values": [
      {"measurement": "Potency", "setting": "[2]", "value": "inactive"}
    ]},
    {"smiles": "O=c1[nH]cnc2nc[nH]c12", "values": [
      {"measurement": "Potency", "setting": "[2]", "value": "inactive"}
    ]},
    {"smiles": "CN(c1nccc(=O)[nH]1)C1CCN(c2nc3ccccc3n2Cc2ccc(F)cc2)CC1", "values": [
      {"measurement": "Potency", "setting": "[2]", "value": "inconclusive: 0.841 µM [activator, full curve]"}
    ]},
    {"smiles": "Cc1c(OCC(F)(F)F)ccnc1CS(=O)c1nc2ccccc2[nH]1", "note": "(stereo not drawn)", "values": [
      {"measurement": "Potency", "setting": "[2]", "value": "active: 54.5 µM"},
      {"measurement": "ratio activity, negative = MMP loss", "setting": "[2]", "value": "inconclusive: -2.5%"},
      {"measurement": "activity change, negative = inhibition", "setting": "[3]", "value": "inconclusive: 5.36%"}
    ]},
    {"smiles": "CCC1NC(=O)c2cc(S(N)(=O)=O)c(Cl)cc2N1", "note": "(stereo not drawn)", "values": [
      {"measurement": "Potency", "setting": "[2]", "value": "inconclusive: 14.3 µM [activator]"},
      {"measurement": "Potency", "setting": "[4]", "value": "inactive"}
    ]},
    {"smiles": "O=C(O)CCC(=O)C(=O)O", "values": [
      {"measurement": "Potency", "setting": "[2]", "value": "inactive"},
      {"measurement": "Potency", "setting": "[4]", "value": "inactive"}
    ]},
    {"smiles": "CN(CCOc1ccc(NS(C)(=O)=O)cc1)CCc1ccc(NS(C)(=O)=O)cc1", "values": [
      {"measurement": "ratio activity, negative = MMP loss", "setting": "[2]", "value": "inconclusive: -1.87%"},
      {"measurement": "Potency", "setting": "[4]", "value": "active: 7.56 µM"},
      {"measurement": "Potency", "setting": "[3]", "value": "inconclusive: 9.52 µM [activator, partial curve]"}
    ]},
    {"smiles": "O", "values": [
      {"measurement": "Potency", "setting": "[2]", "value": "active: 31 µM"},
      {"measurement": "ratio activity, negative = MMP loss", "setting": "[2]", "value": "inconclusive: 16.9%"},
      {"measurement": "Potency", "setting": "[1]", "value": "inconclusive: 17.3 µM [rising, partial curve, poor fit]"}
    ]}
  ]
}
